Measured values taken from a collection of fitness landscapes (doi:10.1126/science.1257360).
The other results are listed elsewhere or left out.

B1: PhoQ; a variant is named by its letters at X, in order, P23837 (parent)
chain: MKKLLRLFFPLSLRVRFLLATAAVVLVLSLAYGMVALIGYSVSFDKTTFRLLRGESNLFYTLAKWENNKLHVELPENIDKQSPTMTLIYDENGQLLWAQRDVPWLMKMIQPDWLKSNGFHEIEADVNDTSLLLSGDHSIQQQLQEVREDDDDAEMTHSVAVNVYPATSRMPKLTIVVVDTIPVELKSSYMVWSWFIYVLSANLLLVIPLLWVAAWWSLRPIEALAKEVRELEEHNRELLNPATTRELTSLVRNLNRLLKSERERYDKYRTTLTDLTHSLKTPLXXLQXXLRSLRSEKMSVSDAEPVMLEQISRISQQIGYYLHRASMRGGTLLSRELHPVAPLLDNLTSALNKVYQRKGVNISLDISPEISFVGEQNDFVEVMGNVLDNACKYCLEFVEISARQTDEHLYIVVEDDGPGIPLSKREVIFDRGQRVDTLRPGQGVGLAVAREITEQYEGKIVAGESMLGGARMEVIFGRQHSAPKDE

Variants of: B1
Assay: enrichment ratio after two sorts for PhoP signalling (ratio (wild type AVST 3.29)); higher = more functional
Conditions: with PhoP (E. coli)

Row | Variant | enrichment ratio
1 | IHRC | ≤ 0.25
2 | VYNG | ≤ 0.25
3 | VQIP | ≤ 0.25
4 | AWEP | ≤ 0.25
5 | FCCA | ≤ 0.25
6 | ITKQ | ≤ 0.25
7 | YFMF | ≤ 0.25
8 | APVQ | ≤ 0.25
9 | YAEV | ≤ 0.25
10 | ILNQ | ≤ 0.25
11 | SLTP | ≤ 0.25
12 | HSTR | ≤ 0.25
13 | WCDR | ≤ 0.25
14 | DWKD | ≤ 0.25
15 | YAIQ | ≤ 0.25
16 | WEYS | ≤ 0.25
17 | MMGW | ≤ 0.25
18 | YRLV | ≤ 0.25
19 | VIFV | ≤ 0.25
20 | LVDI | ≤ 0.25
21 | HQWT | ≤ 0.25
22 | FCVS | ≤ 0.25
23 | SEEW | ≤ 0.25
24 | WQLQ | ≤ 0.25

Row | Variant | enrichment ratio
25 | EVCD | ≤ 0.25
26 | TRWN | ≤ 0.25
27 | WKLQ | ≤ 0.25
28 | DKVK | ≤ 0.25
29 | DAAY | ≤ 0.25
30 | WFYK | ≤ 0.25
31 | RDAL | ≤ 0.25
32 | QFCY | ≤ 0.25
33 | HGKG | ≤ 0.25
34 | ILWQ | ≤ 0.25
35 | MLSI | 3.87
36 | SVRV | ≤ 0.25
37 | LHAF | ≤ 0.25
38 | AFGT | ≤ 0.25
39 | DDNT | ≤ 0.25
40 | DNFK | ≤ 0.25
41 | AHTT | ≤ 0.25
42 | AEWA | ≤ 0.25
43 | DEGN | ≤ 0.25
44 | NERE | ≤ 0.25
45 | PQAC | ≤ 0.25
46 | KTFV | ≤ 0.25
47 | VTML | 15.3
48 | GESY | 12.8

Row | Variant | enrichment ratio
49 | SWKD | ≤ 0.25
50 | MFCV | ≤ 0.25
51 | DYVE | ≤ 0.25
52 | YHEQ | ≤ 0.25
53 | AGQE | ≤ 0.25
54 | KQDQ | ≤ 0.25
55 | TAGW | ≤ 0.25
56 | SCQM | 30.8
57 | AEGS | 9.26
58 | DDWV | ≤ 0.25
59 | WPVP | ≤ 0.25
60 | VGKD | ≤ 0.25
61 | YRHH | ≤ 0.25
62 | QAKH | ≤ 0.25
63 | IPMG | ≤ 0.25
64 | LWRW | ≤ 0.25
65 | SVKV | ≤ 0.25
66 | SFDR | ≤ 0.25
67 | TQGV | 7.37
68 | GCSR | ≤ 0.25
69 | EEHC | ≤ 0.25
70 | YFCF | ≤ 0.25
71 | YMHS | ≤ 0.25
72 | HWRL | ≤ 0.25

Row | Variant | enrichment ratio
73 | DYTC | ≤ 0.25
74 | QMDK | ≤ 0.25
75 | TFKT | ≤ 0.25
76 | YEAL | ≤ 0.25
77 | HQLL | ≤ 0.25
78 | SFFW | ≤ 0.25
79 | EFGK | ≤ 0.25
80 | SCNA | ≤ 0.25
81 | FFQL | ≤ 0.25
82 | DRFK | ≤ 0.25
83 | GTLR | ≤ 0.25
84 | NWLW | ≤ 0.25
85 | RKNN | ≤ 0.25
86 | KPPS | ≤ 0.25
87 | TLLC | 1.31
88 | SDWP | ≤ 0.25
89 | VLCV | ≤ 0.25
90 | MRGQ | ≤ 0.25
91 | TIWQ | ≤ 0.25
92 | FPFE | ≤ 0.25
93 | HAYL | ≤ 0.25
94 | FIIE | ≤ 0.25
95 | VSIA | ≤ 0.25
96 | GTAL | 5.81

Row | Variant | enrichment ratio
97 | SKEY | ≤ 0.25
98 | TVCH | ≤ 0.25
99 | DWPM | ≤ 0.25
100 | QNAK | ≤ 0.25
101 | IVMY | ≤ 0.25
102 | DTDC | ≤ 0.25
103 | WQPW | ≤ 0.25
104 | HHEK | ≤ 0.25
105 | MKHE | ≤ 0.25
106 | RVMD | ≤ 0.25
107 | CMSI | 0.38
108 | YKQA | ≤ 0.25
109 | VYES | ≤ 0.25
110 | DYYM | ≤ 0.25
111 | PELV | ≤ 0.25
112 | KLDA | ≤ 0.25
113 | LCLI | ≤ 0.25
114 | KGPF | ≤ 0.25
115 | NLKY | ≤ 0.25
116 | NGYV | ≤ 0.25
117 | RNET | ≤ 0.25
118 | RFCE | ≤ 0.25
119 | KRSA | ≤ 0.25
120 | VQNR | ≤ 0.25

Row | Variant | enrichment ratio
121 | MEFF | 2.84
122 | VNHR | ≤ 0.25
123 | IVHR | ≤ 0.25
124 | EDGG | ≤ 0.25
125 | VWDY | ≤ 0.25
126 | WISN | ≤ 0.25
127 | MEPE | ≤ 0.25
128 | QCIL | ≤ 0.25
129 | DGHH | ≤ 0.25
130 | VMGQ | ≤ 0.25
131 | IPWQ | ≤ 0.25
132 | HHWE | ≤ 0.25
133 | DSNV | ≤ 0.25
134 | LGGN | ≤ 0.25
135 | WRKF | ≤ 0.25
136 | PQVK | ≤ 0.25
137 | WSHT | ≤ 0.25
138 | EFYH | ≤ 0.25
139 | TVKL | ≤ 0.25
140 | GGTA | ≤ 0.25
141 | TEWS | 28.5
142 | RFPN | ≤ 0.25
143 | CLHH | ≤ 0.25
144 | KIRG | ≤ 0.25

Row | Variant | enrichment ratio
145 | FMGW | ≤ 0.25
146 | QYVA | ≤ 0.25
147 | PREG | ≤ 0.25
148 | TMLR | 0.765
149 | DFYM | ≤ 0.25
150 | NTIG | ≤ 0.25
151 | FRVI | ≤ 0.25
152 | WFNS | ≤ 0.25
153 | WYPH | ≤ 0.25
154 | QAML | 1.05
155 | FETN | ≤ 0.25
156 | FGTY | ≤ 0.25
157 | LHEI | ≤ 0.25
158 | EILA | ≤ 0.25
159 | NIVP | ≤ 0.25
160 | MPGV | ≤ 0.25
161 | IGWA | ≤ 0.25
162 | RTLD | ≤ 0.25
163 | SYKR | ≤ 0.25
164 | KNDL | ≤ 0.25
165 | HETH | ≤ 0.25
166 | GTPT | ≤ 0.25
167 | ERYR | ≤ 0.25
168 | QMMI | ≤ 0.25

Row | Variant | enrichment ratio
169 | SAHH | ≤ 0.25
170 | TDPC | ≤ 0.25
171 | AHSR | ≤ 0.25
172 | KLNW | ≤ 0.25
173 | HSFT | ≤ 0.25
174 | INWF | ≤ 0.25
175 | SWLR | ≤ 0.25
176 | GNPK | ≤ 0.25
177 | LWRI | ≤ 0.25
178 | TRMM | 9.22
179 | YICI | 1.09
180 | KMIS | ≤ 0.25
181 | DIVV | ≤ 0.25
182 | PCDM | ≤ 0.25
183 | DWEC | ≤ 0.25
184 | RTNA | ≤ 0.25
185 | SCPA | ≤ 0.25
186 | HWGD | ≤ 0.25
187 | WIHS | ≤ 0.25
188 | HCSR | ≤ 0.25
189 | NIMG | ≤ 0.25
190 | DAHY | ≤ 0.25
191 | WDRA | ≤ 0.25
192 | MNKV | ≤ 0.25

Row | Variant | enrichment ratio
193 | VPLQ | ≤ 0.25
194 | DYHM | ≤ 0.25
195 | NGRR | ≤ 0.25
196 | YWCK | ≤ 0.25
197 | VWWC | ≤ 0.25
198 | LEFH | ≤ 0.25
199 | LAWR | ≤ 0.25
200 | VTWI | ≤ 0.25
201 | RQSD | ≤ 0.25
202 | VTIV | ≤ 0.25
203 | MHEK | ≤ 0.25
204 | PVGA | ≤ 0.25
205 | KHGF | ≤ 0.25
206 | EQIR | ≤ 0.25
207 | RGKW | ≤ 0.25
208 | HDPG | ≤ 0.25
209 | EILS | ≤ 0.25
210 | GDDG | ≤ 0.25
211 | TGNT | 15.8
212 | GWLM | ≤ 0.25
213 | KLGD | ≤ 0.25
214 | RVCM | ≤ 0.25
215 | PKFT | ≤ 0.25
216 | MYVK | ≤ 0.25

Row | Variant | enrichment ratio
217 | FYGV | ≤ 0.25
218 | IAPL | 0.723
219 | NDDL | ≤ 0.25
220 | QQDW | ≤ 0.25
221 | VYYK | ≤ 0.25
222 | NEMR | ≤ 0.25
223 | AQGP | ≤ 0.25
224 | SVVL | 0.885
225 | RRCP | ≤ 0.25
226 | FDTS | ≤ 0.25
227 | LWCR | ≤ 0.25
228 | WECH | ≤ 0.25
229 | TYRD | ≤ 0.25
230 | FLSL | ≤ 0.25
231 | ATAN | 29.1
232 | LDQK | ≤ 0.25
233 | AYLR | ≤ 0.25
234 | KIQG | ≤ 0.25
235 | FKHI | ≤ 0.25
236 | NHNN | ≤ 0.25
237 | VMCY | ≤ 0.25
238 | FYEA | ≤ 0.25
239 | NNII | ≤ 0.25
240 | DLFN | ≤ 0.25

Row | Variant | enrichment ratio
241 | GQIV | 0.651
242 | EMSY | ≤ 0.25
243 | TFMF | ≤ 0.25
244 | NIFR | ≤ 0.25
245 | RTYW | ≤ 0.25
246 | YFMI | ≤ 0.25
247 | AAIA | ≤ 0.25
248 | KMGA | ≤ 0.25
249 | AQHF | ≤ 0.25
250 | WFST | ≤ 0.25
251 | QNVA | ≤ 0.25
252 | GYKK | ≤ 0.25
253 | TPIQ | ≤ 0.25
254 | VPWE | ≤ 0.25
255 | TDQY | 0.873
256 | GQAP | ≤ 0.25
257 | HVRF | ≤ 0.25
258 | DYAH | ≤ 0.25
259 | KYKE | ≤ 0.25
260 | FPRR | ≤ 0.25
261 | HSVR | ≤ 0.25
262 | PAPG | 0.49
263 | TYIN | ≤ 0.25
264 | ATSC | 3.83

Row | Variant | enrichment ratio
265 | NAGE | ≤ 0.25
266 | SLIT | ≤ 0.25
267 | DLGG | ≤ 0.25
268 | YPKS | ≤ 0.25
269 | LRYQ | ≤ 0.25
270 | FCGQ | ≤ 0.25
271 | SVVG | 6.29
272 | RLNI | ≤ 0.25
273 | KPIS | ≤ 0.25
274 | RSKN | ≤ 0.25
275 | FPWE | ≤ 0.25
276 | YPCD | ≤ 0.25
277 | RTWH | ≤ 0.25
278 | EENC | ≤ 0.25
279 | QIMT | ≤ 0.25
280 | PYAR | ≤ 0.25
281 | PQDF | ≤ 0.25
282 | QPLA | ≤ 0.25
283 | NLSV | ≤ 0.25
284 | DKKV | ≤ 0.25
285 | FLSW | ≤ 0.25
286 | ACTN | 4.2
287 | GNQV | ≤ 0.25
288 | FRDQ | ≤ 0.25

Row | Variant | enrichment ratio
289 | HCPP | ≤ 0.25
290 | QHHF | ≤ 0.25
291 | NMQW | ≤ 0.25
292 | KSAS | ≤ 0.25
293 | MTWG | ≤ 0.25
294 | DPHV | ≤ 0.25
295 | MNCY | ≤ 0.25
296 | ELEM | ≤ 0.25
297 | FAIQ | ≤ 0.25
298 | FWYA | ≤ 0.25
299 | TFAC | 1.41
300 | HVYF | ≤ 0.25
301 | YSHM | ≤ 0.25
302 | FAQD | ≤ 0.25
303 | FWIQ | ≤ 0.25
304 | KTHD | ≤ 0.25
305 | QICA | ≤ 0.25
306 | VVTI | 0.423
